Experimental data taken from the supplement of paper PMC5499739.
Whole data set: some 16,000 sequences, median “Z-score” near -0.37, cut for the highest 2% near 3.1. This is one part of the list.

What follows are sequences tested on RBM10 RRM1-ZnF-RRM2 (GST-tagged construct) (assay: RNAcompete 7-mer binding Z-score; higher = stronger binding preference).
How it was run: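 GST-tagged RBM10 constructs (20 pmol) and a designed pool of 241 399 RNAs up to 41 nt (1.5 nmol) were allowed to bind for 30 min at 4°C in 1 ml Hepes pH 7.8 buffer with glutathione Sepharose beads. After four 2-min washes at 4°C, bound RNA was identified by microarray hybridisation. Enrichment was scored per heptamer motif as a one-sided Z-score across the probes containing it.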

Sequence | RNAcompete 7-mer binding Z-score
UCUGUCG | -0.69
UGACGUU | -0.544
CAGGGCU | 0.64
ACUCUGC | -0.974
AUGAUGA | 0.184
GACUAUG | -0.165
CACGUGG | 0.691
GAAAAAU | -0.0415
GAAGAUA | 0.563
GCAACAU | -0.227
AUAAUCU | -0.65
CGUCGGC | -0.216
UGAUGUU | -0.53
GUUACCU | -0.588
AGUGCAA | 0.53
GCUCUUA | -0.759
UUGAAGA | -0.00877
AUCUAAC | -0.741
UCCGAUG | -0.632
GACUCUC | -0.901
GUUAGGC | 1.25
UUGCUUG | -0.843
CCACCAG | -0.522
GCAAAGA | 0.425
UCUCGCA | -0.708

Sequence | RNAcompete 7-mer binding Z-score
GGUCAGC | 0.716
GGUCAUG | 0.869
GAGAACG | 1.31
UUGUGCG | -0.315
CAGGUUG | 1.63
UAUCAUU | -0.661
CAGGCCA | 0.297
CACAAAG | -0.34
AUAGCGU | 0.00944
ACCACCA | -0.57
AUAAAGG | 1.74
AAAGCAC | -0.398
UUUGCCU | -0.974
GGGCUAG | 1.47
AAAGCUA | -0.213
CAAGGUG | 2.13
GGAACCC | -0.111
CGGAUGC | 0.392
GCAGCGC | 0.108
ACCAUUG | -0.584
AAGUUCU | -0.566
UCUAAAA | -0.57
UCCGCCU | -0.883
CAAGAUC | -0.398
ACGCUAG | -0.322

Sequence | RNAcompete 7-mer binding Z-score
GCUUCAG | -0.533
GGAAUUU | 0.301
ACCGUAA | -0.701
AACUCGU | -0.861
CAUAUGG | 0.497
UUAUUCC | -0.861
GAAGUUA | 0.25
UCUCUCU | -0.723
CUAGUAC | -0.431
AACCUCA | -0.741
CUCCGAC | -0.664
UUGUAGA | -0.0124
GCACGUA | 0.162
GUUUCUC | -0.497
CUGCCUG | -0.781
UCGUGUG | -0.114
CUCUGAU | -0.919
UUUUGCC | -0.868
GACCCCA | -0.825
UUAUGAU | -0.497
CGAGAAG | 0.574
UCGGGAC | 0.523
UUACUUG | -0.628
AAGUUUC | -0.573
CUCGCAC | -0.664

Sequence | RNAcompete 7-mer binding Z-score
AGGGAGC | 2.32
AAAUGCA | 0.0896
CUUCCGC | -0.879
UAGAGAG | 0.993
CAUCAUA | -0.482
GCGGCCU | -0.3
AACGUAU | -0.144
UUAGCAG | 0.155
AUUAGAC | -0.53
GGGGCGA | 2.49
GUUAGCC | -0.541
CAAGAAC | -0.446
AGUAUUU | -0.526
GGUGAUC | 1.07
CCGGCAC | -0.388
GAUAAAU | 0.0204
ACCAACC | -0.726
GGUCCCA | -0.315
GUGGCGA | 2.29
AAAAAGG | 2.19
CGACCGG | 0.399
GAAAAUU | -0.111
AGUGCAG | 0.683
UAAAUAC | -0.369
CCCUGCU | -0.959

Sequence | RNAcompete 7-mer binding Z-score
CACCACA | -0.548
CGGAAUC | -0.0816
UCUAGGA | 0.0568
ACGUAAC | -0.154
UUGAAAA | -0.511
UCUCUAU | -0.77
GCCGUGU | -0.322
GUUACGU | -0.00877
GACAAAA | 0.257
CCGCCAA | -0.814
ACGGCAA | 0.57
UUACACG | -0.511
UGUACAC | -0.296
UUCCCCU | -0.653
GGAGCAG | 2.09
AAUCUGA | -0.679
GGUGCUU | 0.465
UUUAGCG | -0.511
CAGCUCU | -0.748
GCUGCAU | -0.409
GGCCAAA | 0.0714
GGCUCAG | 0.213
UAUACUG | -0.493
UGACCGU | -0.694
AUCAGUC | -0.442

Sequence | RNAcompete 7-mer binding Z-score
GUCACUC | -0.624
CACAAUA | -0.388
AUGCGAC | -0.0525
GCUUCGG | -0.238
CAAGUAA | -0.162
ACUAUGU | -0.526
GGGCAGA | 2.25
CACUUGC | -0.857
GGCACCA | 0.217
UGUAGAC | -0.0415
GGAUGAG | 2.91
CGCUUCU | -1.01
CAUUUAU | -0.919
GGCGCUA | 0.243
UGCACAU | -0.362
ACGUAAA | -0.0306
GUUGGAU | 1.56
GUUACUG | -0.107
CGUAAUU | -0.464
GCCCAGC | -0.661
AGACACU | -0.93
GGUAAGA | 2.22
UCGUUGG | 0.399
GUGGCAA | 1.68
GGACCUG | -0.318

Sequence | RNAcompete 7-mer binding Z-score
GAACCAA | -0.198
UACAUGC | -0.373
CCUCUAG | -0.81
CUAGAUU | -0.661
CUGUAUG | -0.515
GCAUGAG | 0.752
AUUUCCC | -0.828
CCCACAG | -0.635
CUCCUCG | -0.748
GUCCCUA | -0.748
GUCCUUU | -0.752
UAUAAUG | 0.0714
UAUAUGG | 0.924
GCGUCGC | -0.0598
AGGGUUC | 0.996
AAAAUAA | -0.369
UUAUGUU | -0.537
CCCUCAG | -0.81
CGGGUAC | 1.47
AGCGAGA | 0.782
UGAGUGA | 0.949
UAAAUGU | -0.391
UAGAAUA | -0.0925
CUUUAUG | -0.927
UUGCGAA | -0.246

Sequence | RNAcompete 7-mer binding Z-score
GUCCAGU | -0.337
GCACCCU | -0.704
UCUUCUG | -0.712
CUUUCAG | -0.628
AACCUUC | -0.839
ACGAGCC | -0.613
CACCAUG | -0.362
CGGGACG | 1.5
GGUUAAG | 1.95
UUUUUCU | -0.744
GACGGAC | 0.454
CGCGACG | -0.602
CCAAGGA | 0.556
CCCCCGA | -0.315
UGACAUU | -0.606
AAGGCUU | -0.0743
GCCAGUA | -0.0889
ACCAAGG | 0.756
CGCCAGA | -0.497
CAUUGAC | -0.442
UCGAUAA | -0.508
CAUUCGA | -0.744
UAGCGAU | -0.133
GAGGGAA | 3.6
AAAAUGA | -0.111

Sequence | RNAcompete 7-mer binding Z-score
CUCUCGU | -0.803
GCGCCUC | -0.672
CGCGACC | -0.573
CAAAUCU | -0.781
UCCUUGU | -0.803
UCUUUCC | -0.781
CGAGGCC | -0.165
GUGACUU | -0.267
UACUGCU | -0.726
GCGGUAU | 0.574
CUUAAAA | -0.737
GGCAUUA | 0.275
GCGAGUA | 0.716
UCGGUAU | -0.078
UGGAAUA | 1.27
AGGCUUU | -0.657
CAAGCCU | -0.806
UUGACGG | 0.399
GAUUAAG | 0.691
CUAUGCU | -0.839
UUCGAAA | -0.595
AUUGUAU | -0.471
AACUUGA | -0.69
ACCGUAC | -0.686
ACAUUCA | -0.533

Sequence | RNAcompete 7-mer binding Z-score
AGGUUCU | -0.384
AGCUCUG | -0.734
UGAAGGU | 2.14
UCUACUA | -0.759
UGGGCCA | 1.07
CCGUGCU | -0.628
ACGGAGA | 1.3
GUGCCAA | -0.0343
AUAGGCU | 0.25
GGUGUAU | 1.18
AACUCCA | -0.621
CUCUUCA | -0.89
UAAGUGC | -0.3
GAUAGUU | 0.0604
CAUGCAG | -0.00877
GCAUAUU | -0.384
UGUAAUC | -0.406
UAGUGAU | 0.246
GUCCUAG | -0.504
AAGCUAG | -0.256
CAGCGAG | 0.763
ACACACA | -0.227
CAGUUUA | -0.657
UUUACUU | -0.803
CUACGGA | 0.101

Sequence | RNAcompete 7-mer binding Z-score
CACAUUU | -0.985
UUGCGGG | 1.2
CAGAAAC | -0.235
CCUCCUC | -0.759
UUUGAUU | -0.471
AACUAGU | -0.329
CCGCAAG | -0.715
CGUGCAA | -0.118
CUUUUGA | -0.755
GUUGAGG | 3.13
GACGUAU | -0.118
CGAGUCA | -0.224
GAAGAGG | 2.94
CAAAAAU | -0.46
UCGGUUA | -0.289
UCAGAGA | -0.067
AAAUCAU | -0.46
ACCAUGU | -0.555
CGGCUGU | -0.377
UCGGACA | 0.104
CUCUGUG | -0.69
CAGUUGG | 0.538
UACCACG | -0.173
GCCCAAU | -0.708
UUGGAAG | 1.47

Sequence | RNAcompete 7-mer binding Z-score
AUCGAGU | -0.0306
GUGCGAG | 1.67
AGAUGGU | 1.63
AGGAGAG | 2.2
CCCAUAU | -0.777
CCUGCCC | -0.701
GACAGAG | 0.84
ACUAUCU | -0.77
AACAUAU | -0.551
AUGACGU | -0.198
AUAGCUA | -0.38
UGUAGUU | -0.191
ACUAAUA | -0.584
CCAGGAA | 0.647
CGGAGCC | 0.108
ACUGGUU | -0.118
CCAACGU | -0.53
AAAGCGC | -0.136
CCUAUUA | -0.912
CGCAUCU | -0.803
AGUCUAA | -0.406
GGCUGUG | 0.825
AGCCCUU | -0.883
GUUAGAA | 0.734
CCUUAAG | -0.766

Sequence | RNAcompete 7-mer binding Z-score
UAUCUAG | -0.464
AAUCAAC | -0.398
UCGUAUG | -0.122
GAAAGUC | -0.0962
GGCGCCU | -0.388
UGAUAUU | -0.621
GCGGAAA | 1.47
UAGGCGU | 1.16
GUGUUUC | -0.0816
ACACGAG | 0.199
UUUGAGA | -0.147
CGGCUUC | -0.697
UUGUCUC | -0.865
UUUAAAG | -0.395
UUAUGCC | -0.879
GCAUGUU | -0.26
GUCCCAA | -0.581
CUGAUAA | -0.566
CCUUCGG | -0.606
UACGUGU | -0.304
CUAGUGU | -0.511
AUAAUGA | -0.0598
ACUCUUG | -0.785
UUCUUGU | -0.821
AUCAUUA | -0.409

Sequence | RNAcompete 7-mer binding Z-score
AGGAUGC | 0.887
UUAGGGA | 2.36
CUAGGUC | -0.289
UGGACUU | -0.147
UCGUUCC | -0.715
CAAGGCU | -0.067
GUUGGUU | 0.45
ACGCUAU | -0.555
ACGACUC | -0.817
CGACCUG | -0.814
GCUGGAG | 0.829
GCCAAGU | -0.519
GUUCGGC | -0.111
CGCACAA | -0.628
AGAUCAA | -0.333
ACUGAUC | -0.77
AUGAACA | 0.505
GCCAAUG | 0.228
GUAGUUC | -0.22
UGGGCUG | 1.59
AGCGCCC | -0.646
GUCGAUC | -0.267
CUGCACC | -0.581
ACACUGG | 0.224
UAUACAU | -0.464

Sequence | RNAcompete 7-mer binding Z-score
CCCAUCU | -0.861
AUGAGUU | 0.13
AGACAAG | 0.603
CCUAAAU | -0.825
AGGCAAG | 1.55
UAAAUUA | -0.497
AAGCAGC | 0.0969
ACAUCCC | -0.515
ACGCGCC | -0.635
UAUGGUA | 1.32
GUACGCG | 0.545
GCAGGCC | 0.0131
GGCACGG | 1.74
CUUUCAU | -0.854
UCAAUAG | 0.104
ACACCAC | -0.395
UUAGUGG | 1.34
